# Measured values published in paper PMC4336329 (PLoS ONE, 2015).
# The whole screen tested about 310,000 compounds, of which about 14,000 (4.5%) showed an effect of 50% or more. Effects have a minus sign here. The list shows a part of the results.
# Biological target: human ether-à-go-go-related gene (hERG) potassium channel (human, UniProt Q12809)
# Experiment: primary screen, population patch clamp on CHO cells stably expressing hERG
# 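Further: peak tail current of the secondary pulse compared with the same well before compound.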
# Sequence of human ether-à-go-go-related gene (hERG) potassium channel (Q12809 whole entry, looked up): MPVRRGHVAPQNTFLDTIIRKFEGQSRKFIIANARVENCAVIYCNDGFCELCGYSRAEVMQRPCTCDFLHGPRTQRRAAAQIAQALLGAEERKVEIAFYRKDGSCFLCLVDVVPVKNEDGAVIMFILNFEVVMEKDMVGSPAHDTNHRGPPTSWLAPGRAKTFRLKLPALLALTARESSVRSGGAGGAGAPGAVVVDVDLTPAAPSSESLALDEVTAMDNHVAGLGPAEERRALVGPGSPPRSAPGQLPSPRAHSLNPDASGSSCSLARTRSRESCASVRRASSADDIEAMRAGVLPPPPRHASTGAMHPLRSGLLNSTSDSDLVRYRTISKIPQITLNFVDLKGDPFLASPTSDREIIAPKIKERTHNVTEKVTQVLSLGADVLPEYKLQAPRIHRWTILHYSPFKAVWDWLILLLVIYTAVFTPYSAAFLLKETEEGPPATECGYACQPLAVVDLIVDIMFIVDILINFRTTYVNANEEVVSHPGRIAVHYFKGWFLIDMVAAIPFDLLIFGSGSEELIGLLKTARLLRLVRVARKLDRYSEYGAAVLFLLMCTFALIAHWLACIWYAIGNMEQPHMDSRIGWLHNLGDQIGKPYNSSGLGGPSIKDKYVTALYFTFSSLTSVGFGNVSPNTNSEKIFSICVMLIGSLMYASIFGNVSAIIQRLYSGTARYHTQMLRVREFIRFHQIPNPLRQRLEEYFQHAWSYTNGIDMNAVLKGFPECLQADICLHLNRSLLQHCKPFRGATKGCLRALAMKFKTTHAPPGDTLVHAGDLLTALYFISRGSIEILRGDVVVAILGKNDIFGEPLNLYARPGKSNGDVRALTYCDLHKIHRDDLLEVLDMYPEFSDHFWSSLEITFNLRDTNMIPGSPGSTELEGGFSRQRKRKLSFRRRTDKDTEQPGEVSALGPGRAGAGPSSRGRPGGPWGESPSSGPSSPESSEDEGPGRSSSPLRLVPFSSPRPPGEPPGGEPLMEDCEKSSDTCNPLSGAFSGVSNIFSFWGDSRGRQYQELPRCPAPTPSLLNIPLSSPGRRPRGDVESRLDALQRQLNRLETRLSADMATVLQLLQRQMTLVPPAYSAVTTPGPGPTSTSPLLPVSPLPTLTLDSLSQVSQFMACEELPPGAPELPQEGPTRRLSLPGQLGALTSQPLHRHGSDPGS
row,Structure (SMILES),"hERG current change (%, negative = inhibition) at 10uM [%]"
1,CC(=O)c1sc(NC(=O)c2ccc(F)c(F)c2)nc1C,19.6
2,CC(=O)c1ccc(N2CCN(C(=O)CCS(=O)(=O)c3ccc4c(c3)NC(=O)CS4)CC2)cc1,22.8
3,O=C(Cc1cccc2ccccc12)OCn1nnc2ccccc2c1=O,-9.73
4,O=C(CN1CCc2ccccc2C1)N1CCN(S(=O)(=O)c2ccccc2)CC1,-21.9
5,Fc1ccc2c(-c3cccc(C(F)(F)F)c3)c(-c3ccccc3)ncc2c1,14.1
6,Cc1ccc(CNC(=O)/C=C/c2ccc(S(=O)(=O)NCc3ccco3)cc2)cc1,-1.37
7,Cc1cc(Cl)c(S(=O)(=O)NC2CCCCC2)cc1OCC(=O)Nc1nncs1,-22.1
8,O=C(Oc1ccc2ccc(OC(=O)N3CCCCCC3)cc2c1)N1CCCCCC1,-6.72
9,Oc1ccc(CCc2n[nH]c(=S)n2-c2ccc(F)cc2)cc1,-22.2
10,Cc1c(C(=O)Nc2ccccc2[N+](=O)[O-])csc1-c1ccccc1,-2.12
11,O=C(c1ncn(Cc2ccccc2)c1C(=O)N1CCc2ccccc2C1)N1CCc2ccccc2C1,-30.4
12,CC(Sc1nc2ccccc2s1)C(=O)Nc1ccc2c(c1)OCO2 (stereo not shown),5.88
13,c1csc(-c2csc(-c3cccs3)n2)c1,10.1
14,CC(=O)Nc1ccc2nc(SCC(=O)Nc3ccc(N4CCOCC4)c(Cl)c3)sc2c1,0.699
15,CC(C)(C)C(=O)Nc1cccc(C(=O)Nc2cc(C(=O)O)cc(C(=O)O)c2)c1,8.65
16,CC(=O)NC12CC3CC(C1)CC(C(=O)N1CCN(S(=O)(=O)c4ccc(C(C)C)cc4)CC1)(C3)C2,7.66
17,CCn1c(Oc2ccc(F)cc2)nc2c1c(=O)n(C)c(=O)n2C,-4.53
18,COc1ccc(CN2CCN(Cc3ccc4cc(F)ccc4n3)CC2CCO)c(C)c1C (stereo not shown),-63.7
19,COc1ccc(NC(=O)Cn2nnc3ccccc32)c([N+](=O)[O-])c1,9.14
20,C=CCNC(=O)c1cccc(NS(=O)(=O)c2ccc(Cl)cc2)c1,-15.8
21,Cn1c(=O)[nH]c(=O)c2c1ncn2CCCc1ccccc1,1.26
22,CN(C)S(=O)(=O)c1ccc(C(=O)NCC(=O)N/N=C/c2ccccc2)cc1,8.44
23,Cn1cc(/C=N\O)nc2c(=O)n(-c3ccccc3)c(=O)nc1-2,24.4
24,CC(C)(C)NCc1cc(Cl)ccc1OCc1cccs1.Cl,-32.5
25,CCN1C(=O)[C@@H]2[C@@H](c3ccc(-c4cccc(Cl)c4)cc3)N3CCC[C@@]3(C(=O)OC)[C@@H]2C1=O.O=C(O)C(F)(F)F,-18.9
26,Cc1cc(Cl)ccc1OCC(=O)Nc1cccnc1,9.56
27,C/C=C/C(=O)N1c2ccc(C)cc2C(C)=CC1(C)C,-12.8
28,O=C1Nc2ccccc2C(c2ccccc2)=NC1O (stereo not shown),5.52

row,Structure (SMILES),"hERG current change (%, negative = inhibition) at 10uM [%]"
1,CCc1nnc(N/N=C/c2ccc(N3CCC(C)CC3)c([N+](=O)[O-])c2)n1N,12.6
2,COc1ccccc1NC(=O)Nc1ccc(C)cn1,21.5
3,COc1ccc(NC(=O)c2cncc(Br)c2)cc1S(=O)(=O)N1CCCCC1,-4.03
4,COc1ccc(OC)c(N=C(N)N=C(N)N)c1,18.9
5,COc1ccc(C2Oc3ccccc3C3=C2C(c2cccs2)n2ncnc2N3)cc1 (stereo not shown),-52.1
6,Cc1ccc(C)c2[nH]c(=O)c(CN(Cc3ccc4c(c3)OCO4)Cc3nnnn3Cc3ccco3)cc12,-2.72
7,O=C(Nc1cccc(-n2cnnn2)c1)c1ccco1,-0.205
8,CCOc1cc(-c2noc(CCC(=O)NCCc3ccccc3)n2)ccc1OC,1.79
9,CCOc1cc(S(=O)(=O)NCc2ccc3c(c2)OCO3)ccc1F,-0.192
10,COc1ccc(C(=O)Nc2ccccc2)cc1S(=O)(=O)Nc1cc(C)on1,-0.0819
11,CCCCN(C)C(=O)CCC(=O)Nc1ccc2nc(N3CCN(C)CC3)cc(C)c2c1,11
12,O=C(N/N=C/c1oc(O)c2ccccc12)c1ccccc1,17.4
13,COc1ccc(CCNC(=O)CCS(=O)(=O)c2ccc3c(c2)CCN3C(C)=O)cc1OC,-7.62
14,Cc1ccc(C(=O)O/N=C(\N)c2ccccc2)c(Cl)c1,5.47
15,O=C(NCc1cccs1)c1cc(-c2ccncc2)nc2ccc(Br)cc12,-9.33
16,CCOC(=O)C1(Cc2ccc(Cl)cc2)CCN(C(=O)c2ccoc2)CC1,-49.4
17,O=C1NC2(CCc3ccccc32)C(=O)N1CCOc1ccc(Cl)cc1 (stereo not shown),-29.8
18,O=C(/C=C/Nc1ccccc1)C(F)(F)F,-3.35
19,Cc1ccc(S(=O)(=O)c2cc(O)ccc2O)cc1C,-11.4
20,Nc1nonc1N/N=C\c1ccccc1,-2.1
21,COC(=O)c1cc(C(=O)OC)cc(N2C(=O)CN=C2Nc2nc(C)cc(C)n2)c1,-0.946
22,O=C(Cc1csc(-c2ccccc2)n1)NCc1ccc(F)cc1,1.55
23,COc1ccc(-c2noc(-c3ccccc3C(=O)Nc3cccnc3)n2)cc1OC,-31
24,CCCCC(=O)Nc1ccc(C(=O)NNC(=O)c2ccccc2Br)cc1,-12.6
25,CCOC(=O)C(C(=O)OCC)C(Nc1cccc(Br)c1)c1ccccc1 (stereo not shown),9.24
26,CC(C(=O)N1CCN(Cc2ccccc2)CC1)c1ccc([N+](=O)[O-])cc1 (stereo not shown),-43.7
27,CCCn1cc(NC(=O)c2cc(-c3ccccc3)on2)cn1,-21.5
